The antibiotic and cytotoxicity screens of Wong et al. (2023)
This is one part of the list.

Assays:
HSkMC = human skeletal muscle cells; assay: cytotoxicity call (relative viability < 0.9); settings: 10 µM
HepG2 = assay: cytotoxicity call (relative viability < 0.9); settings: 10 µM
S. aureus RN4220 = assay: growth inhibition call (relative growth <= 0.2); settings: 50 µM

Cc1ccc(S(=O)(=O)N(C)C[C@@H]2Oc3c(NC(=O)Nc4cccc5ccccc45)cccc3C(=O)N([C@H](C)CO)C[C@H]2C)cc1
inactive: cytotoxicity call (HSkMC) | cytotoxicity call (HepG2) | growth inhibition call (S. aureus RN4220)

C[C@@H]1CCCCO[C@@H](CN(C)CC2CCCCC2)[C@H](C)CN([C@@H](C)CO)C(=O)c2cc(NC(=O)CCCN(C)C)ccc2O1
inactive: cytotoxicity call (HSkMC) | cytotoxicity call (HepG2) | growth inhibition call (S. aureus RN4220)

O=C(CN1C(=O)COCC1=O)N1CCOCC1
inactive: cytotoxicity call (HSkMC) | cytotoxicity call (HepG2) | growth inhibition call (S. aureus RN4220)

CN(C)Cc1cn(CC[C@@H]2CC[C@@H](N)[C@H](CO)O2)nn1
inactive: cytotoxicity call (HSkMC) | cytotoxicity call (HepG2) | growth inhibition call (S. aureus RN4220)

COc1ccc(C#Cc2cnc3c(c2)C(=O)N([C@H](C)CO)C[C@H](C)[C@H](CN(C)S(=O)(=O)c2cccs2)O3)cc1OC
inactive: cytotoxicity call (HSkMC) | cytotoxicity call (HepG2) | growth inhibition call (S. aureus RN4220)

O=C(O)c1cc(S(=O)(=O)NCCN2CCNC2=O)ccc1O
inactive: cytotoxicity call (HSkMC) | cytotoxicity call (HepG2) | growth inhibition call (S. aureus RN4220)

C[C@@H]1CCCCO[C@@H](CN(C)Cc2ccc(C(=O)Nc3ccccc3N)cc2)[C@@H](C)CN([C@H](C)CO)C(=O)c2cc(NC(=O)CCC(F)(F)F)ccc2O1
inactive: cytotoxicity call (HSkMC) | cytotoxicity call (HepG2) | growth inhibition call (S. aureus RN4220)

C[C@H](CO)N1C[C@H](C)[C@@H](CN(C)Cc2ccccc2)OCCCC[C@H](C)Oc2ccc(NC(=O)Nc3ccc4c(c3)OCO4)cc2C1=O
inactive: cytotoxicity call (HSkMC) | cytotoxicity call (HepG2) | growth inhibition call (S. aureus RN4220)

COc1ccc(S(=O)(=O)Nc2ccc3c(c2)C(=O)N([C@H](C)CO)C[C@H](C)[C@@H](CN(C)Cc2ccccc2)OCCCC[C@@H](C)O3)cc1
inactive: cytotoxicity call (HSkMC) | cytotoxicity call (HepG2) | growth inhibition call (S. aureus RN4220)

CC(C)NC(=O)Nc1cccc2c1O[C@H](CN(C)S(=O)(=O)c1ccc(Cl)cc1)[C@H](C)CN([C@H](C)CO)C2=O
inactive: cytotoxicity call (HSkMC) | cytotoxicity call (HepG2) | growth inhibition call (S. aureus RN4220)

N#CCC(=O)NN
inactive: cytotoxicity call (HSkMC) | cytotoxicity call (HepG2) | growth inhibition call (S. aureus RN4220)

CO[C@@H]1CN(C)C(=O)c2ccc(NC(=O)Nc3ccc(Cl)cc3)cc2OC[C@H](C)N(C(=O)Nc2c(C)noc2C)C[C@H]1C
inactive: cytotoxicity call (HSkMC) | cytotoxicity call (HepG2) | growth inhibition call (S. aureus RN4220)

C[C@H](CO)N1C[C@H](C)[C@H](CN(C)C(=O)Nc2ccc(C(F)(F)F)cc2)Oc2ncc(C#C[C@@H](C)O)cc2C1=O
inactive: cytotoxicity call (HSkMC) | cytotoxicity call (HepG2) | growth inhibition call (S. aureus RN4220)

Cc1noc(C)c1S(=O)(=O)N(C)C[C@H]1OCc2cn(nn2)CCCC(=O)N([C@H](C)CO)C[C@@H]1C
inactive: cytotoxicity call (HSkMC) | cytotoxicity call (HepG2) | growth inhibition call (S. aureus RN4220)

C[C@H]1CN([C@@H](C)CO)C(=O)c2cc(NC(=O)Nc3ccccc3)ccc2O[C@@H]1CN(C)S(=O)(=O)c1cn(C)cn1
inactive: cytotoxicity call (HSkMC) | cytotoxicity call (HepG2) | growth inhibition call (S. aureus RN4220)

C[C@H](CO)N1C[C@H](C)[C@@H](CN(C)C(=O)Nc2ccc(C(F)(F)F)cc2)Oc2c(NS(C)(=O)=O)cccc2C1=O
inactive: cytotoxicity call (HSkMC) | cytotoxicity call (HepG2) | growth inhibition call (S. aureus RN4220)

C[C@@H]1CN([C@@H](C)CO)C(=O)c2cccc(NS(=O)(=O)c3cn(C)cn3)c2O[C@H]1CN(C)C(=O)Nc1ccccc1
inactive: cytotoxicity call (HSkMC) | cytotoxicity call (HepG2) | growth inhibition call (S. aureus RN4220)

CCC(=O)OCN1C(=O)C=CC1=O
inactive: cytotoxicity call (HSkMC) | cytotoxicity call (HepG2) | growth inhibition call (S. aureus RN4220)

C[C@@H]1CN([C@H](C)CO)C(=O)c2cccc(NC(=O)Nc3ccccc3)c2O[C@@H]1CN(C)Cc1ccc(-c2ccccc2)cc1
inactive: cytotoxicity call (HSkMC) | cytotoxicity call (HepG2) | growth inhibition call (S. aureus RN4220)

C[C@H]1CCCCO[C@H](CN(C)S(=O)(=O)c2cccs2)[C@@H](C)CN([C@@H](C)CO)C(=O)c2cc(NS(=O)(=O)c3ccc(Cl)cc3)ccc2O1
inactive: cytotoxicity call (HSkMC) | cytotoxicity call (HepG2) | growth inhibition call (S. aureus RN4220)

COc1ccc(NC(=O)N(C)C[C@@H]2OCCCC[C@H](C)Oc3ccc(NC(=O)C4CCCCC4)cc3C(=O)N([C@@H](C)CO)C[C@H]2C)cc1
inactive: cytotoxicity call (HSkMC) | cytotoxicity call (HepG2) | growth inhibition call (S. aureus RN4220)

C[C@@H]1CCCCO[C@@H](CN(C)C(=O)Nc2ccc3c(c2)OCO3)[C@@H](C)CN([C@H](C)CO)C(=O)c2cc(NC(=O)Cc3ccccc3)ccc2O1
inactive: cytotoxicity call (HSkMC) | cytotoxicity call (HepG2) | growth inhibition call (S. aureus RN4220)

C[C@H](CO)N1C[C@H](C)[C@@H](CN(C)S(C)(=O)=O)Oc2cc(-c3ccccc3F)ccc2S1(=O)=O
inactive: cytotoxicity call (HSkMC) | cytotoxicity call (HepG2) | growth inhibition call (S. aureus RN4220)

CCS(=O)(=O)NCC[C@@H]1CC[C@@H](NC(=O)Cc2ccccn2)[C@H](CO)O1
inactive: cytotoxicity call (HSkMC) | cytotoxicity call (HepG2) | growth inhibition call (S. aureus RN4220)

CC(C)NC(=O)Nc1ccc2c(c1)C(=O)N([C@H](C)CO)C[C@H](C)[C@@H](CN(C)S(=O)(=O)c1cn(C)cn1)OCCCC[C@H](C)O2
inactive: cytotoxicity call (HSkMC) | cytotoxicity call (HepG2) | growth inhibition call (S. aureus RN4220)

CN(C)c1nc(Oc2ccc(=O)n(C)n2)nc(N(C)C)n1
inactive: cytotoxicity call (HSkMC) | cytotoxicity call (HepG2) | growth inhibition call (S. aureus RN4220)

Cc1ccc(S[C@]2(C(=O)NC(C)C)CC(=O)N(Cc3ccccc3Cl)[C@@H]2c2ccc(CO)cc2I)cc1
inactive: cytotoxicity call (HSkMC) | cytotoxicity call (HepG2) | growth inhibition call (S. aureus RN4220)
